# Data as given in the supplement of paper PMC8728848.
# This is one part of the list.
# B1: FliD (Clostridium difficile) (protein)
# chain: MSSISPVRVTGLSGNFDMEGIIEASMIRDKEKVNKAKQDQQIVKWKQEIYRDIIKESKNLYDKYLNGDSPNSITNKKAYSATRITSSDESIIVAKGSAGAEKINYQFAVSQMAEPAKVTIKLNSSDPIVQQFPPNASGASSLNIGGVNIPISEQDTTSTIVSKINSLCADNDIRASYSEMTGELIISRKQTGSSSDIDLKVIGNDSLAGQIASDNGITFTTDASGTKSAVVYGKNLEADVTDDQGRVTHISKEQNSFKIDNIDYNVNSKGSAKLVSVTDTEEATKNMKAFVDDYNALMDKVYGLVTTKKSKDYPPLTDEQKDDMTTEEIEKWEKKAKEGILRNDDELRAFVEDIQSMFFGDADTIIALRKLGISEHENYNKKGQISFNADTFSKALIDDSDKVYKALAGYSSNYDDKGMFEKLKKIVFEYSGSSASKLTKKAGMENSSSASQNVYSKQIAEQERNISRLVEKMNDKEKRLYAKYSALESLLNKYSSQMNYFSQAQGN
# How the values were obtained:
# Test in all cases: glycan array binding signal (z-score within array); higher = stronger binding
# Details in all cases: glycan notation: IUPAC condensed, linker removed
# [1] = molecular target: Gal3S6S(b1-4)GlcNAc6S
# In short: (§1)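 From the Consortium for Functional Glycomics database, 3228 arrays were curated, keeping only those whose protein sequence was available. Binding is given as a within-array Z-score averaged across arrays sharing a protein sequence and across linkers. Negative Z-scores can be read as non-binding.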
# [2] = molecular target: Gal4S(b1-4)GlcNAc
# In short: as §1
# [3] = molecular target: Gal4S6S(b1-4)GlcNAc
# In short: as §1
# [4] = molecular target: Gal6P(b1-4)GlcNAc
# In short: as §1
# [5] = molecular target: Gal6S(b1-3)GlcNAc
# In short: as §1
# [6] = molecular target: Gal6S(b1-3)GlcNAc6S
# In short: as §1
# [7] = molecular target: Gal6S(b1-4)Glc
# In short: as §1
# [8] = molecular target: Gal6S(b1-4)Glc6S
# In short: as §1
# [9] = molecular target: Gal6S(b1-4)GlcNAc
# In short: as §1
# [10] = molecular target: Gal6S(b1-4)GlcNAc6S
# In short: as §1
# [11] = molecular target: GalNAc(a1-3)Gal
# In short: as §1
# [12] = molecular target: GalNAc(a1-3)GalNAc
# In short: as §1
# [13] = molecular target: GalNAc(a1-3)GalNAc(b1-3)Gal(a1-4)Gal(b1-4)Glc
# In short: as §1
# [14] = molecular target: GalNAc(a1-3)GalNAc(b1-3)Gal(a1-4)Gal(b1-4)GlcNAc
# In short: as §1
# [15] = molecular target: GalNAc(b1-3)Gal
# In short: as §1
# [16] = molecular target: GalNAc(b1-3)Gal(a1-4)Gal(b1-4)GlcNAc
# In short: as §1
# [17] = molecular target: GalNAc(b1-3)Gal(a1-4)Gal(b1-4)GlcNAc(b1-3)Gal(b1-4)Glc
# In short: as §1
# [18] = molecular target: GalNAc(b1-3)Gal(a1-6)Gal(b1-4)Glc
# In short: as §1
# [19] = molecular target: GalNAc(b1-3)GalNAc
# In short: as §1
# [20] = molecular target: GalNAc(b1-3)GlcNAc
# In short: as §1
# [21] = molecular target: GalNAc(b1-4)Gal(b1-4)Glc
# In short: as §1
# [22] = molecular target: GalNAc(b1-4)GlcNAc
# In short: as §1
# [23] = molecular target: GalNAc(b1-4)GlcNAc(b1-2)Man
# In short: as §1
# [24] = molecular target: GalNAc(b1-4)GlcNAc(b1-2)Man(a1-3)[GalNAc(b1-4)GlcNAc(b1-2)Man(a1-6)]Man(b1-4)GlcNAc(b1-4)GlcNAc
# In short: as §1
# [25] = molecular target: GalNAc(b1-4)GlcNAc(b1-3)GalNAc(b1-4)GlcNAc
# In short: as §1
# [26] = molecular target: GalNAc(b1-4)GlcNAc6S
# In short: as §1
# [27] = molecular target: GalNAc(b1-6)GalNAc
# In short: as §1
# [28] = molecular target: GalNAc3S(b1-4)GlcNAc
# In short: as §1
# [29] = molecular target: GalNAc3S(b1-4)GlcNAc3S
# In short: as §1
# [30] = molecular target: GalNAc3S(b1-4)[Fuc(a1-3)]GlcNAc
# In short: as §1
# [31] = molecular target: GalNAc4S6S(b1-4)GlcNAc
# In short: as §1
# [32] = molecular target: GalNAc6S(b1-4)GlcNAc
# In short: as §1
# [33] = molecular target: Glc(a1-4)Glc
# In short: as §1
# [34] = molecular target: Glc(a1-4)Glc(a1-4)Glc(a1-4)Glc
# In short: as §1
# [35] = molecular target: Glc(a1-6)Glc(a1-6)Glc
# In short: as §1
# [36] = molecular target: Glc(a1-6)Glc(a1-6)Glc(a1-6)Glc
# In short: as §1
# [37] = molecular target: Glc(b1-4)Glc
# In short: as §1
# [38] = molecular target: Glc(b1-6)Glc
# In short: as §1
binder,measurement,setting,value
B1,glycan array binding signal (z-score),[1],-0.169
same,glycan array binding signal (z-score),[2],-0.236
same,glycan array binding signal (z-score),[3],-0.204
same,glycan array binding signal (z-score),[4],-0.134
same,glycan array binding signal (z-score),[5],-0.222
same,glycan array binding signal (z-score),[6],-0.198
same,glycan array binding signal (z-score),[7],-0.112
same,glycan array binding signal (z-score),[8],-0.231
same,glycan array binding signal (z-score),[9],-0.232
same,glycan array binding signal (z-score),[10],-0.228
same,glycan array binding signal (z-score),[11],-0.165
same,glycan array binding signal (z-score),[12],0.034
same,glycan array binding signal (z-score),[13],-0.09
same,glycan array binding signal (z-score),[14],-0.181
same,glycan array binding signal (z-score),[15],0.623
same,glycan array binding signal (z-score),[16],-0.103
same,glycan array binding signal (z-score),[17],-0.169
same,glycan array binding signal (z-score),[18],-0.043
same,glycan array binding signal (z-score),[19],-0.226
same,glycan array binding signal (z-score),[20],-0.175
same,glycan array binding signal (z-score),[21],-0.057
same,glycan array binding signal (z-score),[22],-0.162
same,glycan array binding signal (z-score),[23],-0.234
same,glycan array binding signal (z-score),[24],-0.139
same,glycan array binding signal (z-score),[25],-0.246
same,glycan array binding signal (z-score),[26],-0.165
same,glycan array binding signal (z-score),[27],-0.271
same,glycan array binding signal (z-score),[28],-0.238
same,glycan array binding signal (z-score),[29],-0.219
same,glycan array binding signal (z-score),[30],-0.182
same,glycan array binding signal (z-score),[31],-0.169
same,glycan array binding signal (z-score),[32],-0.294
same,glycan array binding signal (z-score),[33],-0.054
same,glycan array binding signal (z-score),[34],-0.183
same,glycan array binding signal (z-score),[35],-0.15
same,glycan array binding signal (z-score),[36],-0.187
same,glycan array binding signal (z-score),[37],-0.197
same,glycan array binding signal (z-score),[38],-0.096
